Source: the supplement of paper PMC10126150
Values marked as one replicate rest on one cluster of the flow cell; about a third of the high ones do not repeat.

Test system: ATP
Assay: switch fluorescence ratio, 500 uM ATP over buffer (Cy3 cluster intensity, sum of 5 cycles each) (fold (ratio)); higher = stronger signal-on switching upon ATP binding; sequences stand for … in TCGTCGGCAGCGTCAGATGTGTATAAGAGACAGTTTTTTTTTTTTTTTTTTTTTTTTT…TC
Conditions: aptamer strand: ATP DNA aptamer (quencher-CACCTGGGGGAGTATTGCGGAGGAAGG + anchor), 100 nM annealed; ATP concentration: 500 uM; one replicate
Procedure, shortened: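 Cy3-labelled switching-strand clusters on a modified Illumina MiSeq flow-cell were annealed to 100 nM quencher-labelled ATP aptamer and imaged first in selection buffer, then after 15 min with 500 uM ATP at 22 °C. NaOH stripping and re-annealing separated each of five buffer/ATP cycles, and clusters outside 100-1000 RFU were excluded. The fluorescence ratio sums target-cycle Cy3 intensity over buffer-cycle Cy3 intensity per cluster and averages it per switch-domain sequence.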
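Also: ATP exposure 15 min at 22 °C before imaging.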

| Sequence | switch fluorescence ratio |
| --- | --- |
| ATTTCCGGGA | 1.03 |
| GTGGATGCGA | 1.03 |
| TTGACAGCGG | 1.12 |
| GACGAAGCTC | 2.71 |
| ATAGGTTCTG | 1.05 |
| CTGAAGTAGG | 1.09 |
| ATGGCTAGAC | 1.1 |
| CAGGGCACAT | 1.08 |
| CACCCAATTA | 1.05 |
| TGAGAATTGT | 1.11 |
| ATGGTAATCG | 0.995 |
| GTTGATTCAA | 1 |
| CATACAAAAA | 1.09 |
| AGACTACGT | 0.978 |
| GAATTCGTCA | 1.01 |
| ATTAGATTGG | 1.01 |
| ACTTCTTTAC | 1.13 |
| ACGGAAATA | 1.01 |
| AATTGAGATT | 0.982 |
| TTTTCAAACG | 1.03 |
| TTTAAGATCG | 1.03 |
| ATCGGCTAAT | 1.01 |
| AGCCCTGGGT | 0.978 |

| Sequence | switch fluorescence ratio |
| --- | --- |
| TTTTAAATAC | 1.21 |
| CAACATTACA | 1.21 |
| ACGGATAGCA | 1.02 |
| TAGACCTACT | 1.18 |
| TCAGTTATAT | 1 |
| CAAGTACAT | 1.28 |
| CGGTTATAT | 1.04 |
| CGTTGTCGAT | 1.03 |
| GAACCAGTGG | 1.05 |
| TTTACTTGAA | 0.966 |
| GGGACGAGAT | 1.04 |
| ATTTAATCAA | 0.998 |
| AAGCGACTGC | 1.07 |
| ATGGGTACAG | 0.999 |
| GCATTATGTA | 1.03 |
| TCCGACAGAA | 2.26 |
| AAAGAGGTTA | 0.999 |
| TTTCCAAACT | 0.963 |
| CCAATAGTTT | 1.02 |
| TACTAGTTAA | 0.989 |
| TGCGGTACCA | 0.991 |
| AAGGATGCGG | 1.02 |
| CATTCAAGGC | 1.07 |

| Sequence | switch fluorescence ratio |
| --- | --- |
| ATACCGTCAT | 1 |
| CGGATATGTT | 1 |
| TTAGGCAATT | 0.961 |
| TGGGCTGCTG | 0.989 |
| GGGCATCCGG | 1 |
| AATCGCACAG | 1.08 |
| GAGAAGAGGT | 0.979 |
| ATCGAGCCAC | 1.02 |
| TCTATTGGTC | 0.985 |
| CACTTTATCG | 1 |
| GTCTCGCGAA | 1.06 |
| AACTAATGGA | 0.972 |
| TATTGCGTG | 1.03 |
| TTTAGGAGTG | 1.01 |
| ATATAGATAC | 1.11 |
| AATACTTGAA | 1.01 |
| ATTACTAATT | 0.998 |
| TTACTGAGTC | 1.01 |
| TTGGAACATT | 0.984 |
| AGAAGGGCCT | 0.976 |
| TTTGTCACAG | 1.05 |
| GGTCTCAAGT | 0.98 |
| ATCCCACTCT | 1.01 |

| Sequence | switch fluorescence ratio |
| --- | --- |
| TTAACAATGA | 0.979 |
| GAATGGGCAG | 0.997 |
| AGCTAAGTCG | 0.995 |
| TATAAGCGTA | 1.04 |
| TCGGAACGTG | 0.988 |
| GGAACATCAG | 0.995 |
| CACGTTTCT | 0.994 |
| TGGGTTAAG | 0.996 |
| TGCAGCTTAT | 1.17 |
| TGTGGATGGG | 0.956 |
| CTATGTAACA | 0.984 |
| GGTAACGGAT | 0.97 |
| CTTCCTCGGA | 2.91 |
| CAATTTTGTC | 1.03 |
| TTCGCCTTTA | 0.99 |
| GACACCTACG | 1.36 |
| GGAGGGTAAT | 1.01 |
| CCTGACCGGA | 1.04 |
| TGGGGCTGGC | 0.958 |
| CTATGCTCGC | 1.05 |
| ACGGTAGATG | 1.06 |
| GTTTGATATG | 0.956 |
| CTATTTCCT | 1.05 |

| Sequence | switch fluorescence ratio |
| --- | --- |
| TCGACGCCTT | 2.68 |
| GATGAGGGAA | 1.01 |
| TGCTTACGG | 0.992 |
| CTTTGGGGAA | 1.04 |
| GTATAAGGGA | 0.968 |
| GGTTATAAAA | 1.03 |
| AATTAGGTCA | 0.999 |
| GTAGGTTGGA | 1 |
| TTTGCATGTG | 1.03 |
| CAGTTAGTTA | 0.989 |
| GTCGTGAGA | 1.03 |
| CTCAGGCA | 1.19 |
| GACGTTTATT | 1 |
| ATGGGTTCG | 1 |
| GCGTATGAGG | 0.983 |
| AGGGTCTTAT | 1.01 |
| CAGCAGCTTA | 1.83 |
| CGATGGCGT | 1.04 |
| GGTTGCAACG | 1.02 |
| GTGACGGGAT | 1.02 |
| TGATTTGTC | 1.04 |
| ATGAAGTCCG | 1.02 |
| TAACTTGTCC | 1.04 |

| Sequence | switch fluorescence ratio |
| --- | --- |
| TTCATGCACT | 1.13 |
| GAACGCCCCG | 1.09 |
| TATCGCGAGA | 1.01 |
| CCAAAAAAGA | 0.992 |
| GGTAGAAATG | 1.01 |
| GACACAGTCG | 1.03 |
| AGGGAACTTC | 1 |
| TTAGAGCAGG | 1.04 |
| CATCGTGAAG | 0.997 |
| GAAATTTTCA | 1.03 |
| CATTCTATAG | 0.986 |
| CGATGACGGA | 0.921 |
| ATCGATGTTC | 1.03 |
| TACTTGTAAC | 1.01 |
| GAAAAGCTTG | 1.04 |
| AGTCATGCTT | 1.08 |
| CAGGCAGTGG | 1.01 |
| CTATATGGGT | 0.969 |
| CTGTTATTTG | 0.972 |
| GACGCAGTCA | 1.01 |
| CCAAAAGACG | 1.01 |
| GCATACTGG | 1.09 |
| TCGGTTCTAT | 1.01 |

| Sequence | switch fluorescence ratio |
| --- | --- |
| CGGTCACAAG | 1.01 |
| ATGGCGTACG | 0.999 |
| CTTCGGTCCT | 1.07 |
| CCTCTTTTGT | 1 |
| GTGGGTCAAG | 0.973 |
| GGTTTGAGTG | 0.953 |
| CCTAGTGACG | 0.943 |
| ATAAGCGAGC | 0.993 |
| GACTTGCTGT | 0.996 |
| ATACTCATGG | 0.972 |
| AGTACGAGAA | 1.05 |
| TCTTAGCATG | 1.04 |
| TATCGTCAAC | 1.02 |
| GCCATAAATG | 1.01 |
| CTAGGTATAC | 1.3 |
| CGGCGGCACA | 1.05 |
| TAAACATGAT | 1.02 |
| GAAAGTTAAC | 1.03 |
| CATTTCTAAC | 1.04 |
